Results taken from the BET-seq Pho4 binding data (Le et al. 2018).
The list shows a part of the results. These are noisy estimates, calculated here from bound and input reads.

molecular target: T1, Pho4 (S. cerevisiae) (UniProt P07270); test: relative binding free energy (BET-seq); higher = weaker binding; settings: reference: library average
T1 sequence: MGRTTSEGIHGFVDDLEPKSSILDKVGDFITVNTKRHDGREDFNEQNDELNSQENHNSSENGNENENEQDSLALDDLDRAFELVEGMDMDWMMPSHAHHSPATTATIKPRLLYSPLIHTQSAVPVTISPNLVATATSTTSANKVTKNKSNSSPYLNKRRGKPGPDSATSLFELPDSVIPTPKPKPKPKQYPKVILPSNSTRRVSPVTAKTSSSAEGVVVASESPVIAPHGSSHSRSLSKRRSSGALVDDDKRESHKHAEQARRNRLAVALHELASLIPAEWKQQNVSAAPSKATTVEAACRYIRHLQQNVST

Row | Sequence | relative binding free energy [kcal/mol]
1 | GATCTCACGTGCTGGT | 0.37
2 | TGGTTCACGTGTACGG | 0.35
3 | TGGGACACGTGACGGC | 0.19
4 | GGGTCCACGTGGAGAG | 0.15
5 | TTTTGCACGTGGGTTG | 0
6 | CTATTCACGTGTGATG | 0.18
7 | GCAGGCACGTGGTGTA | -0.13
8 | ATGAGCACGTGTTAGT | -0.11
9 | GGGTCCACGTGGGGTG | -0.05
10 | ATGGCCACGTGAGGAT | 0.17
11 | TTGGTCACGTGCTATA | -0.08
12 | ATGATCACGTGGTGGA | 0.07
13 | TGGACCACGTGTGTTG | -0.02
14 | AGTTACACGTGTGATG | 0.24
15 | TATTACACGTGGGGGG | -0.04
16 | CTGGACACGTGAGGGT | 0.23
17 | GTTGTCACGTGGTAGC | 0.15
18 | TCGAGCACGTGCGGGG | -0.22
19 | TTGTTCACGTGAGGGG | 0.49
20 | GGTATCACGTGAGGCG | 0.34
21 | TGTAGCACGTGTCGGT | 0.01
22 | TAAGGCACGTGCAGGT | -0.15
23 | TAGAGCACGTGTCGAG | -0.03

Row | Sequence | relative binding free energy [kcal/mol]
24 | TCCAGCACGTGGGTGT | -0.25
25 | AGTAGCACGTGGCGGT | -0.19
26 | TCAGACACGTGTTTTG | -0.01
27 | GGATGCACGTGCCAGG | 0.03
28 | TTGGTCACGTGCGCTG | 0
29 | ATTAACACGTGCTGTG | 0.02
30 | TCTGGCACGTGCGGTT | -0.07
31 | TTGAACACGTGATTTG | 0.16
32 | AATTTCACGTGGAGGT | 0.19
33 | TTTCACACGTGGTAAT | -0.02
34 | GTAAGCACGTGCGTTT | -0.1
35 | GTCGTCACGTGAAGTT | 0.31
36 | ATTATCACGTGGTTAG | -0.03
37 | CGTGTCACGTGGGAGC | 0
38 | AATTTCACGTGGGTCT | 0.22
39 | GGGCTCACGTGGGCAT | 0.12
40 | CTGTGCACGTGGTGTC | -0.21
41 | GGGTTCACGTGCAGGA | 0.4
42 | TATTGCACGTGATTGA | 0.05
43 | ATTAGCACGTGTTGTG | -0.04
44 | GATATCACGTGAGAGT | 0.38
45 | AAGCGCACGTGTGTTG | -0.08
46 | GGTTGCACGTGGGCGG | -0.14

Row | Sequence | relative binding free energy [kcal/mol]
47 | GGTAGCACGTGCGGGT | -0.03
48 | TAATACACGTGTGGGA | 0.08
49 | TCGTGCACGTGGTCTT | -0.02
50 | CTGGTCACGTGAATAG | 0.4
51 | ATTGGCACGTGCGGGC | -0.1
52 | GGTTACACGTGGCGGC | 0.05
53 | TCGAGCACGTGGTTGG | -0.16
54 | TGGGGCACGTGAGTTC | 0.21
55 | TGTCTCACGTGTTTCT | 0.15
56 | AGATGCACGTGGTCGT | -0.22
57 | TAATACACGTGTTGGA | -0.01
58 | GTCTTCACGTGTTTGA | 0.21
59 | TGTGACACGTGATATA | 0
60 | AGTGTCACGTGCGGTG | 0.02
61 | TTACGCACGTGTTGGG | -0.04
62 | TAATTCACGTGTGCGG | 0.31
63 | TGCAGCACGTGATGTG | 0.04
64 | ATTGTCACGTGTTGTC | 0.01
65 | GGTAACACGTGAGCAG | 0.27
66 | TTCTTCACGTGGAGGG | 0.27
67 | AGGGTCACGTGTGTGG | 0.24
68 | TTGGACACGTGGCTGG | 0
69 | TGGGTCACGTGCAGTA | -0.06

Row | Sequence | relative binding free energy [kcal/mol]
70 | AATGGCACGTGACGTG | 0.05
71 | GCATGCACGTGTGGAA | 0.11
72 | GTGTACACGTGGTAAA | 0.12
73 | CGTTCCACGTGTATGT | 0.03
74 | GTTTACACGTGGGAAG | 0.08
75 | TGAGTCACGTGTTATA | 0.06
76 | TGCTACACGTGGCGGT | -0.06
77 | AGCGCCACGTGGGGTG | -0.32
78 | CGTCGCACGTGGCGGT | -0.16
79 | AAAGGCACGTGGCAGG | -0.2
80 | TGTGTCACGTGGTGGC | 0.09
81 | GTGATCACGTGGGGGA | 0.09
82 | TAGGGCACGTGTGGAC | -0.12
83 | GTTTTCACGTGGTTCG | 0.37
84 | TAGAGCACGTGAAGTT | 0.1
85 | CTGTGCACGTGTTGGC | -0.14
86 | GTATACACGTGTTAAT | 0.05
87 | AGAAACACGTGGTGGG | -0.08
88 | TGTAACACGTGTTGGC | 0.09
89 | TTTCTCACGTGGTCGG | 0.18
90 | TTTGGCACGTGGTGCG | -0.18
91 | TGCTTCACGTGGGATG | 0.16
92 | GGTTGCACGTGTTGAT | 0.01

Row | Sequence | relative binding free energy [kcal/mol]
93 | TGAAGCACGTGCGTGT | -0.24
94 | TGCGGCACGTGGTAGA | -0.2
95 | TAGGCCACGTGATGGT | 0
96 | AGTTGCACGTGTTGAG | 0.07
97 | ACGTTCACGTGAGATT | 0.54
98 | GGTGTCACGTGGACGA | 0.13
99 | GTCTACACGTGTGTAG | 0.23
100 | TATTCCACGTGTGAGG | 0.28
101 | GTTGGCACGTGAGTTC | 0.2
102 | GTACTCACGTGATTGT | 0.4
103 | ATAACCACGTGTTTGT | -0.03
104 | AGTGACACGTGCGGGT | -0.1
105 | GATGTCACGTGCGATA | 0.28
106 | TTGTGCACGTGTGGGG | 0.08
107 | AATAGCACGTGATGAT | 0.14
108 | CTATACACGTGTGGGG | 0.07
109 | TGATGCACGTGTTTCT | -0.09
110 | TTTTACACGTGGGTGG | -0.01
111 | GTATGCACGTGCTGTA | -0.1
112 | GTCTCCACGTGTTGTT | 0.02
113 | GAGTTCACGTGAATGG | 0.42
114 | CAGTTCACGTGTAAGG | 0.42
115 | ATGAACACGTGTGTGT | -0.09
